PubChem BioAssay AID1963576 (National Center for Advancing Translational Sciences (NCATS), 2024)
Screen size: about 46,000 compounds; about 60 (0.1%) were called active. Inconclusive results (about 3%) are left out. Calls follow the shape of the dose curve; as a rule, active = well fitted inhibition curve with a large enough effect; inconclusive = small, poorly fitted or top-dose-only effect; inactive = no such curve, though single readings can be large or run the other way. The list shows a part of the results.

Assay: Primary qHTS assay for Inhibitors of ovarian cancer metastasis using an organotypic tumor microenvironment (TME) model. Also: nearly all actives have a fitted effect of over 65% in size.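 As to activity change, negative = inhibition: plate controls were DMSO wells for no effect and tomatine positive control wells for full effect.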
Conditions: SKOV3ip1-GFP adhesion/invasion on 3D omental model, fluorescence; series mostly up to 45.8 µM; activity change, negative = inhibition: at the top concentration
Outline: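 Adhesion/invasion was scored as fixed GFP-labeled SKOV3ip1 cell counts (488/509 nm), normalized to DMSO and tomatine controls. Cancer cells in serum-free medium, with four compound doses (0.36-46 umol/L), sat 2 hr at RT then 16 hr at 37 C on a 48 hr fibroblast/mesothelial/ECM culture.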

Activity change, negative = inhibition, inactive:
Cc1ccccc1CSc1cn(CC(=O)N2CCCCC2)c2ccccc12 -8.2%
N#Cc1c(C(F)(F)F)cc(-c2cccs2)nc1SCc1ccc(F)cc1 -0.735%
CC1=C(C(=O)NCc2cccc(F)c2)C2(CCCCC2)OC1=O -11%
CC(C)(C)c1ccc(C(=O)NCCc2csc(-c3ccc(Cl)cc3)n2)cc1 1.64%
Cc1ccc(NC(=O)CCS(=O)(=O)c2ccc(Br)s2)c(Br)c1 2.26%
CCOc1ccc(CCNC(=O)c2oc(=O)c3ccccc3c2-c2ccc(C)cc2)cc1OCC -19.1%
Cc1nn(C)cc1CN(C)C(=O)c1cc(-c2ccccc2)nc2ccc(Br)cc12 -11.6%
CCOC(=O)c1ccc(CN(Cc2ccc(F)cc2)S(=O)(=O)c2ccc(F)c(C(=O)Nc3c(C)cccc3C)c2)cc1 -14%
COc1ccc(C2NC(=O)N(C)C3=C2C(=O)N(c2ccc(C(=O)O)cc2)C3)cc1 (centres undefined) 22.6%
COc1ccc(OC)c(C2CC(=O)Nc3c2c(=O)[nH]c2ncnn32)c1 (centres undefined) 6.85%
CCc1ccccc1NS(=O)(=O)c1ccc2[nH]cc(C(=O)N(CC)Cc3ccccc3)c(=O)c2c1 2.58%
CCCc1ccc(OCC(=O)Nc2sc(C(=O)OCC)c(C)c2C(=O)OCC)cc1 -7.68%
CSc1ncc(C(=O)NCc2ccccc2F)c(-c2ccccc2)n1 0.969%
Cc1ccc2c(CNCc3ccc(C)o3)c(C(=O)O)n(Cc3ccccc3C)c2c1 -2.66%
COc1ccc(S(=O)(=O)Nc2c(C)nc3nc[nH]n3c2=O)cc1 -2.6%
CCOc1ccc(NC(=O)Cn2c(=O)n(CCCCCC(=O)NCc3ccccc3)c(=O)c3sccc32)cc1 6.21%
COc1ccc(CNC(=O)c2cc3cc(OC)ccc3oc2=O)cc1 6.99%
Cc1cc(C)c2c(CC(=O)Nc3ccc(S(=O)(=O)Nc4nc(C)cc(C)n4)cc3)coc2c1 -1.64%
CC(=O)N1CCCc2cc(S(=O)(=O)N3CCCC(C(=O)N4CCN(c5ccccc5)CC4)C3)ccc21 (centres undefined) 3.96%
Cc1cc(S(=O)(=O)C(CNC(=O)c2ccc(F)c(F)c2)c2cccs2)ccc1F (centres undefined) -24.4%
Cc1ccc(NC(=O)C(=O)NCC(c2cccnc2)N2CCN(Cc3ccccc3)CC2)cc1F (centres undefined) -16.3%
Cc1cccc(/C=C/c2onc(C)c2S(=O)(=O)N2CCC(C(=O)N3CCCCC3)CC2)c1 4.45%
CCCCn1cnc2cc(NCc3ccccc3Cl)ccc21 -15.5%
Cc1ccc(-n2ncc3c(Nc4cccc(C(=O)O)c4)ncnc32)cc1 -7.46%
COc1ccc2c(c1)cc1c(=O)n(CC(=O)NC(C)CCc3ccccc3)nc(C)n12 (centres undefined) 5.55%
CC[C@]1(O)C[C@H]2CN(CCC3=c4ccccc4=N[C]3[C@@](C(=O)OC)(c3cc4c(cc3OC)N(C)[C@H]3[C@@](O)(C(N)=O)[C@H](O)[C@]5(CC)C=CCN6CC[C@]43[C@@H]65)C2)C1 0.091%
CCOCCCNC(=O)c1ccc(-n2c(-c3ccccc3)cc3c2CCC(C)C3)cc1 (centres undefined) -1.61%
CSc1cccc(NC(=O)Nc2ccccc2OCc2cc(=O)n3cc(C)ccc3n2)c1 8.9%
COc1ccc(-c2csc3ncnc(Nc4cccc(OC)c4)c23)cc1 -0.336%
Cc1oc(-c2ccc(C(=O)NCc3ccccc3)cc2)nc1CN1CCc2ccccc21 0.945%
O=C(Cc1cccs1)NC1CC(=O)N(c2ccc(F)cc2)C1 (centres undefined) 0.0491%
COc1ccc(NC(=O)CCNS(=O)(=O)c2ccc3c(c2)CCCC(=O)N3)cc1Cl 11.5%
O=C(NCc1ccc(Cl)cc1)NCc1noc2ccccc12 4.16%
Cc1ccc2c(c1)C(c1ccc(F)cc1)N(C(=O)c1ccc(S(=O)(=O)N3CCCCC3)cc1)CC(=O)N2 (centres undefined) -4.83%
CCc1ccc(S(=O)(=O)Nc2ccc3c(c2)n(C)c(=O)c(=O)n3C)cc1 -1.25%
CCC(=O)N1CCc2cc(Br)cc(S(=O)(=O)CCC(=O)N3CCN(c4cccc(C)c4)C(C)C3)c21 (centres undefined) -21.3%
Cc1ccc(S(=O)(=O)c2nnn(-c3ccc(F)c(Cl)c3)c2N)cc1 -2.76%
Cc1cc(OCC(=O)Nc2cc(-c3nc4ncccc4o3)ccc2C)ccc1Cl 13.1%
COC(=O)c1ccccc1NC(=O)C1=CC(c2cccs2)=NS(=O)(=O)N1C 1.47%
COc1ccc(CCNC(=O)c2nc(-c3ccc(Cl)cc3)n3c2CCCCC3)c(OC)c1 5.8%
Cc1cccc(C)c1Nc1c(-c2ccccn2)nc2c(C)cccn12 -5.47%
CCOc1ccc2nc(N3CCCC(C(=O)NCCc4ccc(OCC)c(OCC)c4)C3)sc2c1 (centres undefined) 1.11%
Cc1nn(CC(=O)Nc2ccc(OC(F)(F)F)cc2)c(=O)c2c(C)n(-c3ccc(Cl)cc3)nc12 3.58%
COc1ccc(OCc2ccc(-c3nc(C#N)c(NC(C)c4ccccc4)o3)o2)cc1 (centres undefined) 11%
Cc1cccc(NC(=O)CSc2ncc(-c3ccccc3)[nH]2)c1C -1.25%

outcome, inactive:
CCOC(=O)C(C)Sc1ccc2nnc(CCNS(=O)(=O)c3ccc(C)cc3)n2n1 (centres undefined)
CC1Cc2ccccc2N1C(=O)CSc1nc2ccc(NC(=O)COc3ccccc3)cc2s1 (centres undefined)
O=C(Nc1cccc(C(F)(F)F)c1)c1cnn(-c2cccc(F)c2)c1C1CCNCC1
COc1cccc(-c2nc(CS(=O)(=O)CC(=O)N3CCN(c4cc(C)ccc4C)CC3)c(C)o2)c1
CCc1ccc(C2CC(=O)c3c([nH]c(C(=O)OC4CCCC4)c3C)C2)cc1 (centres undefined)
Cc1ccc(C)c(N2CCN(S(=O)(=O)c3ccc4c(c3)C(C(C)C)C(=O)N4)CC2)c1 (centres undefined)
Cc1ccc(S(=O)(=O)n2nc(-c3ccc(Cl)cc3)nc2NCc2ccc(F)cc2)cc1
COc1ccc(-c2[nH]c(-c3ccc(Cl)cc3)nc2SCC(=O)NCC2CCCO2)cc1 (centres undefined)
CCCSCCCNC(=O)C1CCN(c2nc3ccccc3nc2C(F)(F)F)CC1
O=S(=O)(NCCc1csc2nc(-c3ccccc3)nn12)c1cc(F)ccc1F
COc1ccc(-c2nc3ccccc3s2)cc1NC(=O)c1ccccc1F
COc1ccc(C(=O)Nc2ccc3nc(SCC(=O)N4CCc5ccccc54)sc3c2)cc1
COc1ccc(-n2nc3cc(C)c(NC(=O)c4ccc(-c5ccc(Cl)cc5)o4)cc3n2)cc1
Cc1cccc(Nc2nc(N)nc(N)c2S(=O)(=O)c2ccccc2)c1
